In PubChem BioAssay AID360 (National Center for Advancing Translational Sciences (NCATS), 2006) one finds Potency data, which are given here for 90 molecules.

Screen size: about 48,000 compounds; about 550 (1.1%) were called active. About 4% were inconclusive and are not listed. Cut-off read from the data, not from the text of the source: active = potency below about 15 µM; inconclusive = mostly about 16 µM to 33 µM; inactive = weaker than that. The list shows a part of the results.
Potency is the fitted concentration of half-maximal effect.

Chain of UniProt P04062 (P04062 whole entry, looked up): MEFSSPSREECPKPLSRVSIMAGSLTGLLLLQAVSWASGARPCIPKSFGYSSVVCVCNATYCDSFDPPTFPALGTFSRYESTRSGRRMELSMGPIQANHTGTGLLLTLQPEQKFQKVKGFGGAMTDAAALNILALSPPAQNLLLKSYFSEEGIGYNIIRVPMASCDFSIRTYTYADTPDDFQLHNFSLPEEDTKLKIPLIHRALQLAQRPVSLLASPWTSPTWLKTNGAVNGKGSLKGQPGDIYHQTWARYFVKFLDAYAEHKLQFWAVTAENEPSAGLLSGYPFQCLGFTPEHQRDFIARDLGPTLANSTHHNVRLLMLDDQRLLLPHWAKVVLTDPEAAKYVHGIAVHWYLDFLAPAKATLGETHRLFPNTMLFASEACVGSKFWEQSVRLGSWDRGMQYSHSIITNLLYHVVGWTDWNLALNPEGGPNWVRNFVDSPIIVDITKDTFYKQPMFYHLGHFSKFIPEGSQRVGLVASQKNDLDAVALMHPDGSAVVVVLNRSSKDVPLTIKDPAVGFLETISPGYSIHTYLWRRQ

This experiment concerns the target Lysosomal acid glucosylceramidase (Homo sapiens) (UniProt P04062). Description: Glucocerebrosidase.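 Note: the screen sought inhibitors.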 To be noted: purified enzyme, resorufin glucoside fluorescence (screen aimed at inhibitors), 20 min. A digest of the protocol:
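Compounds titrated against 0.2 nM normal enzyme, 30 uM resorufin beta-D-glucopyranoside substrate, citrate/phosphate buffer with taurocholate and tween-20, pH 5.9. Reaction ran 20 min at room temperature; fluorescence (Ex 548/Em 600) gave AC50.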
Take `Cn1cc(C(=O)NC2CCCCCCC2)c(=O)c2cc(S(=O)(=O)N3CCCC3)ccc21`: the Potency is inactive: > 76.9 µM.

Regarding `Cc1cccc2cc(C(c3nnnn3Cc3ccccc3)N3CCN(c4ccccc4)CC3)c(=O)[nH]c12` (stereo not given), the Potency is inactive: > 76.9 µM.

Take `COCCNC(=O)C(C)OC(=O)c1nsc(Cl)c1Cl` (stereo not given): the Potency was inactive: > 76.9 µM.

For `CCCNC(=O)CSc1nnc(-c2ccco2)n1C`, the Potency was inactive: > 76.9 µM.

Take `O=C(Nc1ccccc1)OCc1ccccn1`: the Potency was inactive: > 76.9 µM.

Turning to `COc1cccc(NC2=CC(=O)CC(C)(C)C2)c1`, the Potency was inactive: > 76.9 µM.

Consider `COc1ccc(CNC(=O)CSc2ncn[nH]2)cc1`, for which the Potency is inactive: > 76.9 µM.

As for `CC1CCN(C(=O)COC(=O)c2cc3ccccc3cc2O)CC1`, the Potency was inactive: > 76.9 µM.

With `CCC(=O)Nc1cc(=O)[nH]c2ncnn12`, the Potency is inactive: > 76.9 µM.

Take `Cc1cc(C)c2nc(-c3ccccn3)cc(C(=O)Nc3cc(C)on3)c2c1`: the Potency is inactive: > 76.9 µM.

As to `COc1ccc(C(=O)CSc2nnc(-c3ccco3)n2CC2CCCO2)cc1` (stereo not given), the Potency is inactive: > 76.9 µM.

For the molecule `O=C(O)CCN1C(=O)CC2(CCCCC2)C1=O`, the Potency was inactive: > 76.9 µM.

Consider `O=C(Nc1ccccc1C(=O)OCc1nnc(-c2ccccc2)o1)c1ccco1`, for which the Potency is inactive: > 76.9 µM.

Consider `COCC(C)OC(=O)C(C#N)c1nc2ccccc2nc1N1CCN(Cc2ccccc2)CC1` (stereo not given), for which the Potency is inactive: > 76.9 µM.

Regarding `N#Cc1ccc(CSc2nnc(-c3ccccn3)n2-c2ccc(Cl)cc2)cc1`, the Potency is inactive: > 76.9 µM.

In the case of `O=C(O)CC1SC(=Nc2ccccc2)N(c2ccccc2)C1=O` (stereo not given), the Potency was inactive: > 76.9 µM.

For `CCn1c(SCC(N)=O)nnc1-c1ccc2[nH]c(C)c(C)c2c1`, the Potency was inactive: > 76.9 µM.

For `Cc1ccc(S(=O)(=O)N2CCN(C(=O)CN3CCOCC3)C2C(C)C)cc1` (stereo not given), the Potency was inactive: > 76.9 µM.

For `O=C(NCc1ccco1)c1cc(-c2cccs2)on1`, the Potency was inactive: > 76.9 µM.

As to `COc1cc(C)nc(N2CCC(C(=O)NC3CCCCC3)CC2)n1`, the Potency is inactive: > 76.9 µM.

In the case of `CSc1nnc2c3cc(C)ccc3n(Cc3ccccc3)c2n1`, the Potency is inactive: > 76.9 µM.

Turning to `O=C(COC(=O)c1ccc(S(=O)(=O)N2CCOCC2)cc1)NC1CCCCCC1`, the Potency is inactive: > 76.9 µM.

As for `CCCCN(C(=O)NC(=O)Nc1ccccc1OC)S(C)(=O)=O`, the Potency was inactive: > 76.9 µM.

As for `Cc1ccc(S(=O)(=O)N2CCC(C(=O)N[C@H](C(=O)NCc3ccco3)C(C)C)CC2)cc1`, the Potency was inactive: > 76.9 µM.

In the case of `CC(O)c1nc2ccccc2n1Cc1nnc(-c2ccc(Cl)cc2)o1` (stereo not given), the Potency is inactive: > 76.9 µM.

Consider `CN1C(=O)/C(=C2/C=Cc3ccccc3N2CCCS(=O)(=O)O)SC1=S`, for which the Potency was inactive: > 76.9 µM.

In the case of `CN(C)c1ccc(C(c2nnnn2CCOC(=O)Nc2ccc(Cl)cc2)N2CCOCC2)cc1` (stereo not given), the Potency is inactive: > 76.9 µM.

Consider `CCOC(=O)c1cnc2sccn2c1=O`, for which the Potency was inactive: > 76.9 µM.

In the case of `NC(=O)C1CCN(C(=O)c2ccc(C(F)(F)F)cc2)CC1`, the Potency is inactive: > 76.9 µM.

Turning to `Nn1c(COc2ccccc2)nc2ccccc2c1=O`, the Potency is inactive: > 76.9 µM.

Turning to `CC(NC(=O)c1cn(C)c2ccc(S(=O)(=O)N3CCCC3)cc2c1=O)c1ccc2c(c1)OCCO2` (stereo not given), the Potency is inactive: > 76.9 µM.

Turning to `CCOc1ccc(-n2c(=O)cc(N3CCN(c4ccc(F)cc4)CC3)[nH]c2=O)cc1`, the Potency is inactive: > 76.9 µM.

Regarding `Cc1ccc2cc(C(c3nnnn3C3CCCC3)N3CCN(c4ccccc4)CC3)c(=O)[nH]c2c1` (stereo not given), the Potency result is “inactive”.

Consider `O=C(c1ccco1)N1CCN(c2ccc(S(=O)(=O)N3CCCC3)cc2)CC1`, for which the Potency was inactive: > 76.9 µM.

As to `O=C(c1nc2nc(-c3ccccc3)cc(C(F)(F)F)n2n1)N1CCOCC1`, the Potency is inactive: > 76.9 µM.

In the case of `O=C1CC(Sc2nnc(-c3ccccc3)o2)C(=O)N1c1ccccc1` (stereo not given), the Potency was inactive: > 76.9 µM.

Regarding `COc1ccc(C(c2nnnn2Cc2ccccc2)N2CCN(C(=O)c3ccco3)CC2)cc1OC` (stereo not given), the Potency is inactive: > 76.9 µM.

In the case of `CCOC(=O)c1ccccc1NC(=O)Cn1cnc2c(cnn2C(C)(C)C)c1=O`, the Potency was inactive: > 76.9 µM.

For the molecule `O=S(=O)(c1cccc2cccnc12)N1CCc2ccccc21`, the Potency is inactive: > 76.9 µM.

Take `COc1ccc(NC(=O)C2C(=O)N(CCO)C3(C)CC2c2ccccc2O3)cc1` (stereo not given): the Potency is inactive: > 76.9 µM.

For the molecule `CC1CCCCC12NC(=O)N(CC(=O)NCCc1ccccn1)C2=O` (stereo not given), the Potency is inactive: > 76.9 µM.

Turning to `O=C(Nc1ccc2c(c1)OCO2)C(c1ccc(Cl)cc1)N1CCN(C(=O)c2ccco2)CC1` (stereo not given), the Potency is inactive: > 76.9 µM.

Regarding `O=C1C2C3C=CC(C3)C2C(=O)N1CN(Cc1ccccc1)CN1C(=O)C2C3C=CC(C3)C2C1=O` (stereo not given), the Potency was inactive: > 76.9 µM.

Regarding `CCOCC(=O)Nc1cccc(OC)c1`, the Potency was inactive: > 76.9 µM.

Take `Cc1ccc2oc(=O)cc(CN3CCC(C)CC3)c2c1`: the Potency was inactive: > 76.9 µM.

Consider `COCCN1Cc2cccc(C(=O)Nc3c(C)cc(C)cc3C)c2C1=O`, for which the Potency is inactive: > 76.9 µM.

Turning to `CCCCC1CC1C(=O)Nc1ncc2c(n1)CC(C)(C)CC2=O` (stereo not given), the Potency is inactive: > 76.9 µM.

For the molecule `COc1ccc(-c2ccc(OC)cc2C(=O)O)cc1`, the Potency was inactive: > 76.9 µM.

With `Cc1cccc(OCC(=O)Nc2cc(C)ccc2O)c1`, the Potency was inactive: > 76.9 µM.

With `CCOC(=O)c1c(=O)n(O)c2ccc(C)cc2[n+]1[O-]`, the Potency was inactive: > 76.9 µM.

Take `Cn1c(=O)[nH]c(=O)c2c1nc(SCCN1CCCCC1)n2Cc1ccccc1`: the Potency is inactive: > 76.9 µM.

As for `CCC1(C)Cc2c(C#N)c(N)n(-c3ccccc3)c(=O)c2CO1` (stereo not given), the Potency is inactive: > 76.9 µM.

In the case of `CCOCC(=O)Nc1cccc(NC(C)=O)c1`, the Potency was inactive: > 76.9 µM.

For `COc1ccc2nc(C)c(C(=O)OCCN(C)C)cc2c1`, the Potency is inactive: > 76.9 µM.

On to `Cc1c(C(=O)NCCCN2CCOCC2)sc2nc(-c3ccc(F)cc3)cn12`, for which the Potency is inactive: > 76.9 µM.

Take `CCN(CC)S(=O)(=O)c1cc(C(=O)n2cccn2)c(Cl)cc1Cl`: the Potency is inactive: > 76.9 µM.

As for `c1ccc(Cn2c(Nn3cnnc3)nc3ccccc32)cc1`, the Potency was inactive: > 76.9 µM.

In the case of `CC(=O)SCCC(=O)Nc1ccccc1`, the Potency is inactive: > 76.9 µM.

On to `Cc1cc(C)n(CCOc2ccc(Cl)cc2Cl)n1`, for which the Potency was inactive: > 76.9 µM.

Consider `CCCc1nc2oc3c(NCCOCCO)ncnc3c2c2c1COC(C)(C)C2`, for which the Potency was inactive: > 76.9 µM.

On to `CCOC(=O)CC(=O)CSc1nc(-c2cccnc2)cc(C)c1C#N`, for which the Potency was inactive: > 76.9 µM.

For `CCc1c(C)nc2ncnn2c1N1CCC(C(=O)Nc2ccccc2)CC1`, the Potency was inactive: > 76.9 µM.

For the molecule `COC(=O)c1cc2ccsc2n1CC(=O)Nc1ccc(N(C)C)cc1`, the Potency entry was “inactive”.

For `COc1cc(C(=O)N2CCC(NC(=O)C(Cc3ccccc3)NC(C)=O)CC2)cc(OC)c1OC` (stereo not given), the Potency was inactive: > 76.9 µM.

Consider `O=C(c1ccco1)N1CCN(S(=O)(=O)c2cccs2)CC1`, for which the Potency was inactive: > 76.9 µM.

`Cn1nnnc1SCC(=O)NCc1ccco1`: the Potency is inactive: > 76.9 µM.

For `O=C(CSc1ccccc1)Nc1ccccc1N1CCOCC1`, the Potency was inactive: > 76.9 µM.

As for `CC1Cc2ccccc2N1C(=O)CCN1C(=O)C2C3C=CC(C3)C2C1=O` (stereo not given), the Potency was inactive: > 76.9 µM.

In the case of `Cc1ccc(C)c(N2CCN(C(=O)C3CCCN(S(=O)(=O)c4c(C)[nH]c(=O)[nH]c4=O)C3)CC2)c1` (stereo not given), the Potency is inactive: > 76.9 µM.

Take `Cn1c(SCC(=O)O)nnc1C1CCCCC1`: the Potency was inactive: > 76.9 µM.

With `CCOCCCNC(=O)c1ccc(CS(=O)(=O)Cc2ccc(C)cc2)o1`, the Potency is inactive: > 76.9 µM.

With `COc1ccc(S(=O)(=O)N(C)CC(=O)N2CCC(C(N)=O)CC2)cc1Cl`, the Potency was inactive: > 76.9 µM.

Consider `CC(Oc1ccc(Cl)cc1Cl)C(=O)N(Cc1ccco1)C1CCS(=O)(=O)C1` (stereo not given), for which the Potency is inactive: > 76.9 µM.

Consider `COc1cccc(-c2nc(-c3ccc(NC(=O)Cc4ccccc4OC)cc3)no2)c1`, for which the Potency is inactive: > 76.9 µM.

Take `CCCCn1c(SCC(=O)OC)nc2c1c(=O)n(C)c(=O)n2C`: the Potency was inactive: > 76.9 µM.

`COc1cc(-c2nn3c(-c4ccccc4)nnc3s2)cc(OC)c1OC`: the Potency was inactive: > 76.9 µM.

Turning to `CCN(CC)C(=O)CSc1nc2ncccc2[nH]1`, the Potency was inactive: > 76.9 µM.

In the case of `O=C1C(C=NCc2ccccn2)=C(O)c2ccccc21`, the Potency is inactive: > 76.9 µM.

For the molecule `CCn1c(COc2ccccc2OC)nnc1SCC#N`, the Potency was inactive: > 76.9 µM.

On to `CCOC(=O)N1CCC(N(C(=O)Nc2ccc(CC)cc2)C(C)CC)CC1` (stereo not given), for which the Potency was inactive: > 76.9 µM.

Turning to `O=C1c2[nH]nc(-c3ccccc3O)c2C(c2ccc(F)cc2)N1Cc1ccco1` (stereo not given), the Potency entry is “inactive”.

Turning to `O=C(NCC(=O)N(c1cccnc1)C(C(=O)NC1CCCCC1)c1cccnc1)c1ccco1` (stereo not given), the Potency is inactive: > 76.9 µM.

Turning to `CCOC(=O)c1cc2ccc(OC(=O)c3ccco3)cc2oc1=O`, the Potency is inactive: > 76.9 µM.

With `CCCN(CCC)S(=O)(=O)c1ccc(C(=O)Nc2nnc(-c3cccc(OC)c3)o2)cc1`, the Potency is inactive: > 76.9 µM.

As for `Cc1cc(C)cc(NC(=O)CCN2CC(C)OC(C)C2)c1` (stereo not given), the Potency was inactive: > 76.9 µM.

For the molecule `CCOCc1cc(C2NC(=O)NC(C)=C2C(=O)OCC)ccc1OC` (stereo not given), the Potency is inactive: > 76.9 µM.

In the case of `Cc1nn(Cc2ccccc2)c(C)c1C(=O)OCC(=O)c1cc(C)n(C2CC2)c1C`, the Potency entry is “inactive”.

Consider `CCC(=O)N1CCc2cc(OC)c(OC)cc2C1COc1ccc(C(=O)OC)cc1` (stereo not given), for which the Potency was inactive: > 76.9 µM.

In the case of `CC(=O)NC(CC(=O)NCC(c1ccco1)N(C)C)c1ccccc1` (stereo not given), the Potency was inactive: > 76.9 µM.

Take `Cc1ccc(C(C)C)c(OCc2nnc(SCC(=O)Nc3ncc(C)s3)n2C)c1`: the Potency is inactive: > 76.9 µM.
